# Screen size: about 390,000 compounds; about 4,000 (1%) were called active. The inconclusive results got no clear call from the source; some entries with a clear call stand among them for comparison. Calls follow the shape of the dose curve; as a rule, active = well fitted inhibition curve with a large enough effect; inconclusive = small, poorly fitted or top-dose-only effect; inactive = no such curve, though single readings can be large or run the other way. A potency beside an inconclusive call is a rough fit, not a confirmed value.
# Target: Thioredoxin reductase 1, cytoplasmic (Rattus norvegicus) (UniProt O89049)
# Sequence of UniProt O89049 (O89049 whole entry, looked up): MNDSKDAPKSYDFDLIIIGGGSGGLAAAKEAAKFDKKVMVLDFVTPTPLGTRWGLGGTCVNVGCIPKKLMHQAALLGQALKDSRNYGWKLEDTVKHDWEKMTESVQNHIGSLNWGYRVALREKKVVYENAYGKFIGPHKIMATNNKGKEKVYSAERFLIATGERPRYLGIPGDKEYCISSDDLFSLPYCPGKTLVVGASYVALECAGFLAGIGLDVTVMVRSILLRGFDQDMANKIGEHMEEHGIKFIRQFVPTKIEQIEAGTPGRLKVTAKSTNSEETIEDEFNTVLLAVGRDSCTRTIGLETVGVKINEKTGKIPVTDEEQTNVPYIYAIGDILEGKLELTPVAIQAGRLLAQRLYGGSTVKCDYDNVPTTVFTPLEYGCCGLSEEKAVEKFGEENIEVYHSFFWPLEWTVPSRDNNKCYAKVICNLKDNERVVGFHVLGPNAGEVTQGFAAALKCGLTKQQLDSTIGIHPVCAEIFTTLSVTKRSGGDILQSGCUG
# Assay: qHTS Assay for Inhibitors of Mammalian Selenoprotein Thioredoxin Reductase 1 (TrxR1): qHTS; also: nearly all actives have a fitted effect of over 65% in size
# Settings: recombinant rTrxR1, NADPH fluorescence consumption, selenite substrate; series mostly up to 114 µM
# Outline: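 Rat TrxR1 (90 nM in the dispensed reagent) was pre-reduced with 400 uM NADPH for 5 min at room temperature, then incubated with compound for 15 min. After 400 uM selenite was added, NADPH fluorescence (Ex 340/Em 450 nm) was followed for 8 min.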
# Potency is read from the fitted curve at half-maximal effect; tags tell the direction and shape of the fitted curve.
row,SMILES,Potency
1,CCc1nc2c(sc3nc4c(cc32)COC(C)(C)C4)c(=O)n1Cc1ccco1,"inconclusive: 25.1 µM [inhibitor, single point]"
2,O=C(O)c1nn(-c2ccc(Cl)cc2)ccc1=O,"inconclusive: 79.4 µM [inhibitor, single point]"
3,CCN(CC)CCCNC(=O)c1cn(CC)c2cc(N3CCN(C(=O)c4ccco4)CC3)c(F)cc2c1=O,active: 70.8 µM
4,CC(=O)Nc1ccc(-n2c(CCC(=O)O)ccc2-c2ccc(C)cc2)cc1,"inconclusive: 89.1 µM [inhibitor, single point]"
5,CCN(CC)c1ccc(N)cc1S(=O)(=O)Nc1ccccc1OC,"inconclusive: 6.31 µM [inhibitor, partial curve, poor fit]"
6,CC(C(=O)NC1CCCC1)N(C(=O)c1ccc(-c2ccccc2)[nH]1)c1ccccc1F (centres undefined),inactive
7,CCOC(=O)C(=O)Nc1ncc(Cl)s1,"inconclusive: 79.4 µM [inhibitor, partial curve]"
8,CC1CCC(NC(=O)c2cc3c(s2)CS(=O)(=O)C3)CC1 (centres undefined),"inconclusive: 8.91 µM [inhibitor, full curve, poor fit]"
9,C/C(=N/NC(=O)CSc1nc2ccccc2n1C)c1ccco1,"inconclusive: 79.4 µM [inhibitor, partial curve, poor fit]"
10,Cc1ccc2c(c1C)NC(C(=O)O)C1CC=CC21 (centres undefined),active: 2.51 µM
11,CCOC(=O)C1CCN(c2c(C(=O)c3ccc(C)cc3)cnc3ccc(F)cc23)CC1,inactive
12,O=C(COC(=O)c1cncc(Br)c1)NCc1cccs1,inactive
13,CC(=O)CC1OC(=O)C(Br)=C1NCc1ccccc1 (centres undefined),active: 14.1 µM
14,CCOc1ccc(S(=O)(=O)N/N=C2/CCCC(=O)C2)cc1,"inconclusive: 22.4 µM [inhibitor, full curve]"
15,CN1c2ccccc2N(C)C1(C)c1ccccc1,"inconclusive: 2.82 µM [inhibitor, full curve, poor fit]"
16,CCCN1CCC(=O)N([C@H](CSc2ccc(OC)cc2)c2ccccc2)CC1,"inconclusive: 10 µM [inhibitor, partial curve]"
17,CC(C)CC(=O)NC(NC(=S)Nc1cccc2cccnc12)C(Cl)(Cl)Cl (centres undefined),inactive
18,Cc1ccc(C2=Nc3ccccc3NC(C)(c3ccc(C)o3)C2)o1 (centres undefined),"inconclusive: 35.5 µM [inhibitor, partial curve, poor fit]"
19,O=C(NCc1cccs1)C1CC(O)CN1C(=O)Nc1ccccc1 (centres undefined),"inconclusive: 89.1 µM [inhibitor, partial curve, poor fit]"
20,COc1ccccc1CNC(=O)COC(=O)Cc1c(F)cccc1Cl,"inconclusive: 1.78 µM [inhibitor, partial curve, poor fit]"
21,C#CCOCCOCCOCCNc1nc(N2CCN(C(=O)C([C@@H](C)CC)n3cc(C(N)Cc4ccc(O)cc4)nn3)CC2)nc(N2CCN(C(=O)[C@H](CCC(=O)O)n3cc(C(N)CO)nn3)CC2)n1 (some centres undefined),"inconclusive: 14.1 µM [inhibitor, partial curve, poor fit]"
22,Cc1ccc2c(Cl)cc(Cl)c(OCC(=O)NC(=O)NCc3ccco3)c2n1,"inconclusive: 79.4 µM [inhibitor, partial curve, poor fit]"

row,SMILES,Potency
1,C=CC[C@H](CC(=O)N(CCO)Cc1ccccc1)C(=O)NC[C@H](OC(=O)[C@@H](CC=C)CC(=O)OC(C)(C)C)c1ccccc1,inactive
2,Cc1ccc(NC(=S)N/N=C/c2ccc([N+](=O)[O-])s2)cc1,inactive
3,Cc1ccn2c(NC(=O)c3cccs3)c(-c3ccccc3)nc2c1,"inconclusive: 89.1 µM [inhibitor, partial curve, poor fit]"
4,Cc1cc2nc(Sc3c([N+](=O)[O-])nc(C)n3Cc3ccccc3)[nH]c2cc1C,active: 7.08 µM
5,O=c1c2ccccc2n(CC(O)CN2CCOCC2)c2ccccc12 (centres undefined),inactive
6,C=C(C)Cc1c(C)c(C#N)c2[nH]c3ccccc3n2c1=O,"inconclusive: 89.1 µM [inhibitor, single point]"
7,O=C1NC(=O)C(c2ccc(F)cc2)N1 (centres undefined),inactive
8,CC(=O)NC(=C(Cl)Cl)S(=O)(=O)c1ccccc1,"inconclusive: 28.2 µM [inhibitor, single point]"
9,O=C1c2ccccc2C(=O)C1Cc1cccc2ccccc12,"inconclusive: 35.5 µM [inhibitor, single point]"
10,COc1cccc(C(C[N+](=O)[O-])c2c(C)[nH]n(-c3ccccc3)c2=O)c1 (centres undefined),"inconclusive: 50.1 µM [inhibitor, partial curve, poor fit]"
11,O=S(=O)(Nc1ccc(F)cc1)c1ccc(NC(=S)Nc2ccccc2)cc1,"inconclusive: 56.2 µM [inhibitor, single point]"
12,CC(=O)Nc1ccc(S(=O)(=O)NCCSCc2ccco2)cc1,"inconclusive: 15.8 µM [inhibitor, partial curve, poor fit]"
13,CCCCC[C@H](O)/C=C/C1C(=O)C=C[C@H]1C/C=C\CCCC(=O)OC (some centres undefined),"inconclusive: 39.8 µM [inhibitor, partial curve]"
14,O=C(NCc1ccccc1)c1ccc2nc(-c3ccco3)c(-c3ccco3)nc2c1,"inconclusive: 2.82 µM [inhibitor, full curve, poor fit]"
15,COc1ccc(Cc2nnc(SCC(=O)Nc3nc(C)cs3)o2)cc1,inactive
16,CC(C)Oc1ccc(C(=O)CCN2CCOCC2)cc1,active: 3.55 µM
17,CN1CCN(C(=S)NC(=O)c2ccccc2Cl)CC1,inactive
18,Cc1cc(N)ccc1-n1c(C)ccc1C,"inconclusive: 14.1 µM [inhibitor, full curve]"
19,Cc1ccc2nc(N(Cc3cccnc3)C(=O)c3ccc4c(c3)OCCO4)sc2c1,inactive
20,Cn1c(=O)cc(N2CCOCC2)[nH]c1=O,"inconclusive: 15.8 µM [inhibitor, partial curve]"
21,CCOC(=O)NN1C(=O)c2ccccc2NC1c1ccccc1 (centres undefined),"inconclusive: 89.1 µM [inhibitor, single point]"
22,COc1cccc(C(=O)N/N=C(\C)CC(=O)Nc2ccc(N(C)C)cc2)c1,"inconclusive: 39.8 µM [inhibitor, single point]"

# — PubChem BioAssay AID588453 (National Center for Advancing Translational Sciences (NCATS), 2011)
